Laboratory results: PubChem BioAssay AID662 (National Center for Advancing Translational Sciences (NCATS), 2007)
The campaign covered roughly 71,000 compounds. About 1,800 (2.5%) were called active. Inconclusive results, whose numbers are uncertain, are shown with a selection of clear calls. Calls come from the whole dose curve; as a rule, active = well fitted activation curve with a large enough effect in the signal ratio, with a control signal flat (not every such curve was filed as active); inconclusive = small, poorly fitted or top-dose-only effect, or effect the other way, or a change in a side signal; inactive = flat fitted curve, though single readings scatter; the % refers to the signal ratio. A potency beside an inconclusive call is a rough fit, not a confirmed value.
Potency is the fitted concentration of half-maximal effect; tags give direction and shape of the fitted curve.

Assay: Cell signaling CRE-BLA (Fsk stim); for activity change, negative = inhibition: % of control where 0% means no effect
Settings: CHO CRE-bla reporter (cAMP response element driving beta-lactamase), forskolin EC10, beta-lactamase ratio; activity change, negative = inhibition: at 38.2 µM (top of the series) unless noted
Outline: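 Using CellSensor CRE-bla CHO cells in Opti-MEM with 0.5% dialyzed FBS, compounds were titrated with EC10 NKH 477 for 3 h at 37 °C. CCF4 ratio (460/530 nm) gave %Activity; AC50 derived.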
For `O=C(O)[C@@H]1Cc2c([nH]c3ccccc23)[C@@H](CCCCO)N1`, the activity change, negative = inhibition was inactive: 8.17% [at 7.6 µM]. For `N[C@@H](CSS(=O)(=O)O)C(=O)O`, the activity change, negative = inhibition was “inactive”. For `CC(C)c1ccc(S(=O)(=O)N2CCN(C(=O)c3cccc(F)c3)CC2)cc1`, the Potency was inconclusive: 25.1 µM [rising, single point]. With `Cc1ccc2c(C(=O)CN3CCN(C4CCCCC4)CC3)c(C)[nH]c2c1` the activity change, negative = inhibition was inconclusive: 3.69%. In the case of `COc1cc2c(cc1OC)C(C(=O)N1CCOCC1)C(c1cccs1)N(C)C2=O` (stereo not given), the activity change, negative = inhibition is reported as inconclusive: 16.5%. With `CCOC(=O)Cn1c(S(=O)(=O)Cc2ccccc2)nc2ccccc21` the activity change, negative = inhibition was “inactive”. In the case of `Cc1ccc([C@@]2(C)CC/C(=N/N=C3\CC[C@](C)(c4ccc(C)c(C)c4)c4cc(C)c(C)cc43)c3cc(C)c(C)cc32)cc1C`, the activity change, negative = inhibition is reported as inactive: 4.64% [at 7.6 µM]. With `Cc1cc2c(N3CCCCC3C)ncnc2s1` (stereo not given) the Potency was inconclusive: 7.94 µM [rising, partial curve]. In the case of `CC(=O)Nc1cc(-c2nn(CC(=O)N3CCCCC3)c(=O)c3ccccc23)ccc1N1CCOCC1`, the activity change, negative = inhibition is reported as inconclusive: 12.9%. In the case of `CS(=O)(=O)Nc1cccc(-c2nccc(-n3ccnc3)n2)c1`, the Potency is reported as inconclusive: 10 µM [rising, partial curve]. With `Clc1ccc(C(c2nnnn2C2CCCC2)N2CCSCC2)cc1` (stereo not given) the activity change, negative = inhibition was “inactive”. For `Cc1cc(Nc2cccc(F)c2)n2nc(C)nc2n1`, the Potency was inconclusive: 10 µM [rising, partial curve]. With `Cc1cccc(N2CCN(C(=O)C3CCCN(S(=O)(=O)c4cnc[nH]4)C3)CC2C)c1` (stereo not given) the activity change, negative = inhibition was inconclusive: -8.78%. In the case of `CCC(C)(C)NC(=O)CN(C(=O)CCC(=O)Nc1cc(C)ccn1)c1ccc2c(c1)OCO2`, the activity change, negative = inhibition is reported as “inactive”. For `COC(=O)C1C(=O)c2c([nH]c(C(=O)OC3CCCCCC3)c2C)CC1C` (stereo not given), the activity change, negative = inhibition was “inactive”. For `COc1ncc2ncc(=O)n(C)c2n1`, the activity change, negative = inhibition was “inactive”. With `CC(C)n1c2ccccc2c2nnc(SCC(=O)OCN3C(=O)c4ccccc4C3=O)nc21` the Potency was inconclusive: 2 µM [rising, partial curve]. In the case of `NC(=O)c1cc(-c2ccccc2)nc(N2CCCCCC2)n1`, the Potency is reported as inconclusive: 25.1 µM [rising, partial curve]. With `COc1ccc(OC)c(-c2nnc(NC(=O)C(C)Sc3nncn3C)s2)c1` (stereo not given) the Potency was active: 12.6 µM. In the case of `CCC(Sc1nnc(-c2ccc(C)c(Cl)c2)n1CC)C(=O)Nc1nccs1` (stereo not given), the activity change, negative = inhibition is reported as inconclusive: -15.9%. For `Cc1cnc(C(=O)OCC(=O)Nc2oc(-c3ccccc3)c(-c3ccccc3)c2C#N)cn1`, the Potency was inconclusive: 7.94 µM [rising, partial curve]. In the case of `CCOc1ccc(-n2c(Cc3cc(=O)[nH]c(=O)[nH]3)nnc2SCC)cc1`, the activity change, negative = inhibition is reported as “inactive”. With `COc1ccc(N(CC(=O)NCc2cccs2)S(=O)(=O)c2c(C)n[nH]c2C)cc1` the activity change, negative = inhibition was “inactive”. In the case of `CCOC(=O)c1ccc(N2CSC3=C(C#N)C(c4cccs4)CC(=O)N3C2)cc1` (stereo not given), the activity change, negative = inhibition is reported as “inactive”. With `Oc1ccc(CN2CCCc3ccccc32)c2cccnc12` the activity change, negative = inhibition was “inactive”. With `COC(=O)N1CCC2(CC1)CN(c1ccccc1)C2` the Potency was inconclusive: 3.16 µM [rising, partial curve]. For `COC(=O)C1=C(CSc2nc3ccccc3o2)NC(=O)NC1c1cc(C)ccc1C` (stereo not given), the activity change, negative = inhibition was inconclusive: 23.5%. For `COc1cccc(-n2ccnc2SCC(=O)Nc2ccccc2)c1`, the activity change, negative = inhibition was “inactive”. In the case of `COc1c2c(nc3ccccc13)O[C@@H]([C@@](C)(O)CO)C2`, the activity change, negative = inhibition is reported as “inactive”. In the case of `CC(=O)C(C(C)=O)c1c(Cl)c(O)c(O)c2c(C(=O)c3ccccc3)coc12`, the activity change, negative = inhibition is reported as inconclusive: -10.9%. In the case of `Cc1onc(-c2c(F)cccc2Cl)c1C(=O)Nc1nc2c(s1)CCCC2`, the Potency is reported as inconclusive: 0.1 µM [rising, full curve]. For `CC(=O)Cc1nsc(NC(=O)c2ccc(-c3cc(C(F)(F)F)ccc3Cl)o2)n1`, the Potency was active: 0.631 µM. For `CC1CN(S(=O)(=O)c2cccc(C(=O)NCc3ccc4c(c3)OCO4)c2)CC(C)O1` (stereo not given), the activity change, negative = inhibition was “inactive”. In the case of `COc1ccc(OC)c2[nH]c(=O)c(CCNC(=O)C(C)(C)C)cc12`, the activity change, negative = inhibition is reported as “inactive”. For `COCCn1c(=O)c(-c2ccc(F)c(F)c2)nc2cncnc21`, the Potency was active: 15.8 µM. For `Cn1nc(-c2ccc(Cl)cc2)c2cc(C(=O)NCCN3CCOCC3)sc21`, the Potency was inconclusive: 10 µM [rising, partial curve]. For `CC(=O)c1ccc(N2CCCC2)c(F)c1`, the activity change, negative = inhibition was inconclusive: 19.2%. With `COC(=O)c1ccc(C2c3c(oc4cc(C)c(C)cc4c3=O)C(=O)N2CCCN(C)C)cc1` (stereo not given) the activity change, negative = inhibition was “inactive”. For `Cc1ccc2c(c1)CCCN2C(=O)Nc1ccc2c(c1)OCO2`, the Potency was inconclusive: 3.98 µM [rising, single point]. In the case of `CCOc1ccc(NC(=O)Nc2ccc3nccnc3c2)cc1`, the activity change, negative = inhibition is reported as “inactive”. With `O=S(=O)(NCCCCCCc1ccccc1)c1cccc2c(Cl)cccc12` the activity change, negative = inhibition was inconclusive: 19.9%. In the case of `CCCCCC(=O)N(CN1C(=O)CCC1=O)c1ccccc1`, the activity change, negative = inhibition is reported as “inactive”. For `COc1ccc(OC)c(NC(=O)Cn2c(CCC(=O)O)ccc2-c2cccs2)c1`, the activity change, negative = inhibition was “inactive”. In the case of `Cc1nc2cc(-c3cccc(F)c3)nn2c(C)c1CCC(=O)N1CCN(c2ccccn2)CC1`, the activity change, negative = inhibition is reported as “inactive”. With `CCOc1cc(/C=N/O)cc(Br)c1OC` the activity change, negative = inhibition was inconclusive: 28.1% [at 7.6 µM]. In the case of `O=C(/C=C\c1ccc(O)c(O)c1)O[C@H]1C[C@@](O)(C(=O)O)C[C@H](O)[C@@H]1O`, the activity change, negative = inhibition is reported as “inactive”. For `O=C(NCCN1CCOCC1)c1cc(-c2ccc(Cl)cc2)on1`, the activity change, negative = inhibition was inconclusive: 24.9%. In the case of `CC1CC(C)CN(CCCNC(=O)Cc2c(C(=O)O)[nH]c3ccccc23)C1` (stereo not given), the activity change, negative = inhibition is reported as inconclusive: -28%. For `N#Cc1nn(-c2ccccc2)nc1N1CCCCC1`, the activity change, negative = inhibition was inconclusive: 16.7%. In the case of `O=C(O)C1C2C=CC(C2)C1C(=O)NC1CCN(Cc2ccccc2)CC1` (stereo not given), the activity change, negative = inhibition is reported as “inactive”. In the case of `COC(=O)CSC1=NS(=O)(=O)c2ccccc21`, the activity change, negative = inhibition is reported as inconclusive: -29.5%. With `Cc1cc(NCCN2CCOCC2)n2ncc(-c3ccc(Cl)cc3)c2n1` the activity change, negative = inhibition was “inactive”. For `Cc1ccc(C)c2[nH]c(=O)c(CCNC(=O)c3cc4ccccc4o3)cc12`, the activity change, negative = inhibition was inconclusive: -0.558%. With `O=C(Nc1ccccc1)N1CC2(CCN(C(=O)c3cc(C(F)(F)F)cc(C(F)(F)F)c3)CC2)C1` the activity change, negative = inhibition was “inactive”. With `Cc1nc2nc[nH]n2c(=O)c1NC(=O)CCc1ccccc1` the activity change, negative = inhibition was inconclusive: 11.5%. For `O=C(CN1CCc2ccccc21)Nc1ccc2c(c1)OCO2`, the activity change, negative = inhibition was inconclusive: -14.4%. In the case of `CCC(=O)Nc1cccc(-c2cn3ccsc3n2)c1`, the activity change, negative = inhibition is reported as “inactive”. For `O=C(CCC1CC(=O)Nc2ccccc21)NCc1cccnc1` (stereo not given), the activity change, negative = inhibition was “inactive”. For `Cn1c(=O)[nH]c(=O)c2c1nc(CN1CCN(c3cccc(Cl)c3)CC1)n2Cc1ccccc1Cl`, the activity change, negative = inhibition was “inactive”. In the case of `O=C(Nc1ccc(-n2nncc2-c2ccco2)cc1)c1cc2ccccc2oc1=O`, the activity change, negative = inhibition is reported as “inactive”. With `CN(C)c1oc(-c2ccccc2)nc1C#N` the activity change, negative = inhibition was inconclusive: 16.5%. For `Cc1scc(C(=O)N2CCN(S(C)(=O)=O)CC2)c1-c1ccccc1`, the activity change, negative = inhibition was “inactive”. With `Cc1cc(C)nc(NS(=O)(=O)c2ccc(NC(=O)CCCN3C(=O)c4ccccc4C3=O)cc2)n1` the activity change, negative = inhibition was inconclusive: -6.38% [at 7.6 µM]. In the case of `CCN(CC)CCNC(=O)Cn1cnc2sc(C)c(S(=O)(=O)N3CCOCC3)c2c1=O`, the Potency is reported as inconclusive: 10 µM [rising, partial curve]. With `Cc1ccc2c(c1)c1c(n2CC(O)Cn2c(C)nc3ccccc32)/C(=N\O)CCC1` (stereo not given) the activity change, negative = inhibition was inconclusive: -17.3%. With `CCOc1ccccc1Nc1cc(C)nc2nc(C)nn12` the Potency was inconclusive: 10 µM [rising, partial curve]. For `CC(=O)Nc1ccc(-c2nc3c(C)cccc3[nH]2)cc1`, the activity change, negative = inhibition was inconclusive: 11.3%. In the case of `O=C1Nc2cc(C(=O)N3CCOCC3)ccc2SC1N1CCOCC1` (stereo not given), the activity change, negative = inhibition is reported as inconclusive: 7.23%. In the case of `CCCCCN=C(C)c1c(O)c2ccccc2oc1=O`, the activity change, negative = inhibition is reported as inconclusive: 28.9%. For `Cn1c(C(=O)N2CCc3ccccc32)cc2c(=O)n3ccccc3nc21`, the Potency was inconclusive: 31.6 µM [rising, partial curve]. With `Cc1cc(NC(=O)COC(=O)C(Nc2ccc(C(F)(F)F)cc2Cl)C(C)C)no1` (stereo not given) the activity change, negative = inhibition was inconclusive: -8% [cytotoxic]. In the case of `N#CCCn1c(=O)c(-c2ccccc2)nc2cnc(Oc3ccccc3)nc21`, the Potency is reported as inconclusive: 12.6 µM [rising, single point]. In the case of `O=C(NCc1ccco1)c1sc(=S)n2c1[nH]c(=O)c1ccccc12`, the activity change, negative = inhibition is reported as inconclusive: -27.9%. In the case of `Cc1ccc2[nH]c(=O)c(CN(Cc3ccccc3)Cc3nnnn3C3CCCC3)cc2c1`, the activity change, negative = inhibition is reported as “inactive”. With `COc1ccc(-n2c(Cc3cccs3)nnc2SCC(=O)Nc2ccc3c(c2)OCCO3)cc1` the activity change, negative = inhibition was inconclusive: 5.33%. For `CCOC(=O)N1CCN(C(=O)c2cnn3c(C(F)F)cc(-c4ccc(C)cc4)nc23)CC1`, the activity change, negative = inhibition was inconclusive: -9.76% [fluorescent]. In the case of `CCCCN(c1ccccc1)c1ncnc2nc[nH]c12`, the activity change, negative = inhibition is reported as “inactive”. In the case of `Cn1c(=O)c(-c2ccc(Cl)cc2)nc2cnc(N3CCNCC3)nc21`, the Potency is reported as inconclusive: 0.251 µM [rising, full curve]. In the case of `O=C(C1CCN(S(=O)(=O)N2CCOCC2)CC1)N1CCN(Cc2ccc3c(c2)OCO3)CC1`, the activity change, negative = inhibition is reported as inconclusive: -19%. In the case of `O=C(c1ccc(F)cc1)N1CCCCC(Sc2nnc3ccccn23)C1=O` (stereo not given), the activity change, negative = inhibition is reported as “inactive”. In the case of `CSc1nncc(-c2ccc(F)cc2)n1`, the activity change, negative = inhibition is reported as inconclusive: 24.2%. In the case of `COc1ccc(N(C(=O)c2ccco2)S(=O)(=O)c2cc(OC)ccc2OC)cc1`, the Potency is reported as inconclusive: 12.6 µM [falling, single point]. For `CC(C)(C)NC[C@H](O)COc1cccc2c1CCC(=O)N2`, the activity change, negative = inhibition was “inactive”. For `CCSc1nnc(-c2ccccc2NC(=O)CC)c(=O)[nH]1`, the activity change, negative = inhibition was inconclusive: -25.1%. With `COC(=O)N1CCC[C@@]2(CCN(c3ncccn3)C2)C1` the activity change, negative = inhibition was “inactive”.
